In PubChem BioAssay (NCATS):
Inconclusive results, whose numbers are uncertain, are shown with a selection of clear calls. For some assays here: Potencies of inconclusive entries are left out as doubtful fits. Calls of active or inactive are those of the source. Unless noted, calls come from the whole dose curve; as a rule, active = well fitted curve in the direction sought with a large enough effect; inconclusive = small, poorly fitted or top-dose-only effect, or another doubt; inactive = no such curve, though single readings can be large; an effect the other way counts as inactive or inconclusive.

Assays:
[1] = qHTS Validation Assay to Find Inhibitors of Chronic Active B-Cell Receptor Signaling (AID 485345; active = well fitted curve in the direction sought with a large enough effect in the main read-out, with a control signal flat, not every such curve was filed as active; inconclusive = small, poorly fitted or top-dose-only effect, or effect the other way, or a change in a side signal; inactive = no such curve, though single readings can be large or run the other way;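 for activity change: 0% = untreated basal cells and 100% = 10 µM MG-132 proteasome inhibitor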); settings: ABC-DLBCL cells, chronic BCR signaling reporter; activity change: CBG luciferase, at 46.1 µM (top of the series)
How it was run: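 Read-out: ratio of filter-corrected green (IkappaBalpha fusion) to red (native) luciferase signal in doxycycline-induced TMD8 cells after 4 h at 37C. Titration spanned 46 uM–3 nM; Data were normalised to basal cells and 10 uM MG-132 wells.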

[2] = molecular target: ATP-dependent 6-phosphofructokinase (Trypanosoma brucei brucei) (UniProt O15648); assay: qHTS Validation Assay to Find Inhibitors of T. brucei phosphofructokinase (AID 485368)
How it was run: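 PFK-generated ADP was measured after 45 min at room temperature using ADP-Glo. The reaction contained 0.5 mM F6P and 0.1 mM ATP.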

[3] = Quantitative high throughput screen for delayed death inhibitors of the malarial parasite plastid, 96 hour incubation (AID 488745); note: nearly all actives have a fitted effect of over 70% in size
How it was run: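 Two-generation (96 h) exposure of luciferase-reporter P. falciparum in erythrocytes, 2% hematocrit, 0.1% parasitemia final, 37 C, 5% CO2, RPMI 1640 with 0.5% Albumax. Growth inhibition scored by reduced luminescence.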

[4] = Quantitative high throughput screen for delayed death inhibitors of the malarial parasite plastid, 48 hour incubation (AID 488752); note: nearly all actives have a fitted effect of over 65% in size
How it was run: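 Cultures: infected erythrocytes at final 2% hematocrit and 0.1% parasitemia in Albumax-supplemented RPMI. Parasites express integrated firefly luciferase. Incubation with compound lasts 48 h before luminescent detection of remaining reporter activity.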

[5] = molecular target: Flap endonuclease 1 (Homo sapiens) (UniProt P39748); assay: qHTS Validation Assay for the Inhibitors of Human Flap endonuclease 1 (FEN1) (AID 488816)
How it was run: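 qHTS format: compounds and 10 nM FEN1 incubated 15 min at room temperature before adding 50 nM substrate. Cleavage followed by reads at 0 and 15 min; normalized data fitted to a four-parameter Hill curve.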

[6] = molecular target: Ubiquitin carboxyl-terminal hydrolase 2 (Homo sapiens) (UniProt O75604); assay: qHTS Validation Assay for Inhibitors of Ubiquitin-specific Protease USP2a Using CHOP2 as the Reporter (AID 463106)
How it was run: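 Readout was coupled fluorescence (Ex 485/Em 531 nm), read 60 min after adding 25 nM final Ub-CHOP2 and 25 nM reporter substrate. Beforehand, 10 nM final USP2 core had 30 min at RT with compound in pH 8.0 buffer. Curves were fitted after normalization to NEM and flagged for artifacts using time-zero reads.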

[7] = molecular target: DNA polymerase III PolC-type (Bacillus subtilis (strain 168)) (UniProt P13267); assay: qHTS Validation Assay for the Inhibitors of DNA Replication in Gram-Positive Bacteria (AID 485295)
How it was run: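 Reconstituted B. subtilis holoenzyme (Pol III, beta clamp, SSB, primase) was preincubated with compound at room temperature, then given single-stranded circular M13Gori plus dNTPs and NTPs. EDTA-containing PicoGreen stopped the reaction, and dsDNA product was read by fluorescence.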

[8] = molecular target: Thioredoxin reductase 1, cytoplasmic (Rattus norvegicus) (UniProt O89049); assay: qHTS Assay for Substrates of Mammalian Selenoprotein Thioredoxin Reductase 1 (TrxR1) (AID 488772);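 note: a drop in NADPH fluorescence below the no-compound background marks a TrxR1 substrate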
How it was run: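 In this dual-purpose format, potential substrates are identified from the first fluorescence read after selenite addition, not from the 8-minute delta. Rat enzyme is preincubated with NADPH and then with compound at ~22 deg C.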

[9] = molecular target: Thioredoxin reductase 1, cytoplasmic (Rattus norvegicus) (UniProt O89049); assay: qHTS Assay for Inhibitors of Mammalian Selenoprotein Thioredoxin Reductase 1 (TrxR1) (AID 488773); settings: Potency: inhibition; note: nearly all actives have a fitted effect of over 40% in size
How it was run: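 Inhibition is scored from the loss of NADPH fluorescence between first and last reads of an 8-min kinetic run. Selenite (400 uM) was the substrate, added after 15 min compound preincubation at room temperature.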

[10] = Validation screen for small molecules that induce DNA re-replication in MCF 10A normal breast cells (AID 463097); note: nearly all actives have a fitted effect of over 60% in size
How it was run: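 Readout: Hoechst nuclear fluorescence intensity, 405 ex / 500-530 em, by scanning plate imager; re-replication scored as increase in nuclei with elevated DNA content. Cells exposed to compound 48 hr, 37 C, 5% CO2 beforehand.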

[11] = molecular target: M-phase phosphoprotein 8 (Homo sapiens) (UniProt Q99549); assay: qHTS Validation Assay for Inhibitors for MPP8 Chromodomain Interactions with Methylated Histone Tails (AID 488949); note: nearly all actives have a fitted effect of over 55% in size
How it was run: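 MPP8 (50 nM) was preincubated with biotinylated H3(1-18)K9me3 peptide (50 nM) in PBS pH 7.4, 0.01% Tween-20 for 30 min at room temperature, then with compounds for 30 min; binding was detected by AlphaScreen.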
Potency is the fitted concentration of half-maximal effect; tags give direction and shape of the fitted curve or compound fluorescence and quenching.

Chain of UniProt O75604 (O75604 whole entry, looked up): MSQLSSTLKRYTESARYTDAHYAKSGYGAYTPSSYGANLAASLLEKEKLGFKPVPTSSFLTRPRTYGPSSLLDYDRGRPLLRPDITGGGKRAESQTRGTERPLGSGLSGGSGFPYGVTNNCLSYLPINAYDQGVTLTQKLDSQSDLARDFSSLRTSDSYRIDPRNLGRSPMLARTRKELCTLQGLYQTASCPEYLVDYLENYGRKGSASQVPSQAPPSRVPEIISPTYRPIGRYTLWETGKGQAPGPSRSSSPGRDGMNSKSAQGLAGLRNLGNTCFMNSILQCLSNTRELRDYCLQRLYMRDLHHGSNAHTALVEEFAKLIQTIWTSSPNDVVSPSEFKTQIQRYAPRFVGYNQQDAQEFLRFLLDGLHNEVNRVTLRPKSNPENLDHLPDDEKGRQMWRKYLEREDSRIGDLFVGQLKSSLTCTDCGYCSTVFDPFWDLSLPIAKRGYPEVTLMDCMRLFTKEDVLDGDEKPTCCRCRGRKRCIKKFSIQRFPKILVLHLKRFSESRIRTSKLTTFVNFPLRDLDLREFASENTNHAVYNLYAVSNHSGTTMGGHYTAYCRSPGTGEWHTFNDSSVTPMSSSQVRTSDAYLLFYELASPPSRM
Chain of UniProt O89049 (O89049 whole entry, looked up): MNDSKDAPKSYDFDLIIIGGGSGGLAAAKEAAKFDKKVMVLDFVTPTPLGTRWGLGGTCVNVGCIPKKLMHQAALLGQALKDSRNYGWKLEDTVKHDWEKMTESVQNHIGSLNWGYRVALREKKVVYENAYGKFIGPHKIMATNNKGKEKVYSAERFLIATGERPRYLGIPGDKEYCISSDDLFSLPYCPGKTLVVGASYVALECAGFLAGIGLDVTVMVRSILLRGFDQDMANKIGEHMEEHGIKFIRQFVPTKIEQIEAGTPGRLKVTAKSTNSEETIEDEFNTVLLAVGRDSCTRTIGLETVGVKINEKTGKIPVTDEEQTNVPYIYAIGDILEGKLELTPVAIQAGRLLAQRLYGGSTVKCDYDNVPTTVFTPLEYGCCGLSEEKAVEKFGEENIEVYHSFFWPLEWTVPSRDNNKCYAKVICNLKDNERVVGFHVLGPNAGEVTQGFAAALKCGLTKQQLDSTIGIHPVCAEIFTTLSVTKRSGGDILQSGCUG
Chain of UniProt O15648 (O15648 whole entry, looked up): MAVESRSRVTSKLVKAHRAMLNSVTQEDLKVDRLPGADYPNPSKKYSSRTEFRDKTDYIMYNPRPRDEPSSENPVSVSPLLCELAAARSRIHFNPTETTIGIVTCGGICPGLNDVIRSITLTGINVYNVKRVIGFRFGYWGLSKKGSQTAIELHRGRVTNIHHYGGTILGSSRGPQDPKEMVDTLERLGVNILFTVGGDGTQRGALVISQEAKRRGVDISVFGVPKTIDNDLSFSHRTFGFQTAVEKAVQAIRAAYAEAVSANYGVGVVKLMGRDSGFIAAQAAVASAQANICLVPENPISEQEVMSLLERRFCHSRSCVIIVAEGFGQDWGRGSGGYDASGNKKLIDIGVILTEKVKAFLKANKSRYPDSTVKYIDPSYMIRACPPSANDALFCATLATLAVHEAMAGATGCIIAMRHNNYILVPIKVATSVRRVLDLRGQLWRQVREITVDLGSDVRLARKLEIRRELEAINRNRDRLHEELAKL
Chain of UniProt Q99549 (Q99549 whole entry, looked up): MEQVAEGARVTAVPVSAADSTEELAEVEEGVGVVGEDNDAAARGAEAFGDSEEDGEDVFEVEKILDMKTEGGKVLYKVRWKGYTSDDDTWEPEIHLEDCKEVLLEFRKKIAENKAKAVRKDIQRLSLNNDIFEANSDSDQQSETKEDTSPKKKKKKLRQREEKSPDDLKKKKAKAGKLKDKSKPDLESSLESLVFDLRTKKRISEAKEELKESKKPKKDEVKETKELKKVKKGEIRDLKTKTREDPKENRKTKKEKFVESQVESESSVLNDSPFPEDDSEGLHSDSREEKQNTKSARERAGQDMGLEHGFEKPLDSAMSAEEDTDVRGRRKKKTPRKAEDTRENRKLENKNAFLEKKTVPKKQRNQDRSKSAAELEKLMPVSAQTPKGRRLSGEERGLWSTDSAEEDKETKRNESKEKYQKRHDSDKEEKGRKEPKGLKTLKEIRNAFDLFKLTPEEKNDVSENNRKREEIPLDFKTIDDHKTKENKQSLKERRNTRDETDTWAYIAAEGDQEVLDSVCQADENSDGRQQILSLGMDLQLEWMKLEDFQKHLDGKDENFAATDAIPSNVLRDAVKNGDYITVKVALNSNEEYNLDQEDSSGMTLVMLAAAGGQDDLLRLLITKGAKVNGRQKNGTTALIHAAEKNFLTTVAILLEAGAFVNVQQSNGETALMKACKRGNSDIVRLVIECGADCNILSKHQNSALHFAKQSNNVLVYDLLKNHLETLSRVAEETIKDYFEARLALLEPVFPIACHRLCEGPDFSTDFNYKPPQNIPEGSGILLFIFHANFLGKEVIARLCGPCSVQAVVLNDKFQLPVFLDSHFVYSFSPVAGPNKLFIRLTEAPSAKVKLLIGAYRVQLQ
Chain of UniProt P39748 (P39748 whole entry, looked up): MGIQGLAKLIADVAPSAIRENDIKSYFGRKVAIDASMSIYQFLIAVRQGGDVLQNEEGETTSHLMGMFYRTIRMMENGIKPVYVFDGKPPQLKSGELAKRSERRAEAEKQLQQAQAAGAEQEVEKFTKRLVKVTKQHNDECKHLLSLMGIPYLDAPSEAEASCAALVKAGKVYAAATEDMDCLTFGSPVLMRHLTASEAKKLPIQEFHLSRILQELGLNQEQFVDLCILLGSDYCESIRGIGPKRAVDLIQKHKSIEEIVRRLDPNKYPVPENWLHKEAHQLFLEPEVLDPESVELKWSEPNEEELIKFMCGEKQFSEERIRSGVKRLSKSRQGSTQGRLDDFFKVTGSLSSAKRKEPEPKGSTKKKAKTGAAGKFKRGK
Chain of UniProt P13267 (P13267 whole entry, looked up): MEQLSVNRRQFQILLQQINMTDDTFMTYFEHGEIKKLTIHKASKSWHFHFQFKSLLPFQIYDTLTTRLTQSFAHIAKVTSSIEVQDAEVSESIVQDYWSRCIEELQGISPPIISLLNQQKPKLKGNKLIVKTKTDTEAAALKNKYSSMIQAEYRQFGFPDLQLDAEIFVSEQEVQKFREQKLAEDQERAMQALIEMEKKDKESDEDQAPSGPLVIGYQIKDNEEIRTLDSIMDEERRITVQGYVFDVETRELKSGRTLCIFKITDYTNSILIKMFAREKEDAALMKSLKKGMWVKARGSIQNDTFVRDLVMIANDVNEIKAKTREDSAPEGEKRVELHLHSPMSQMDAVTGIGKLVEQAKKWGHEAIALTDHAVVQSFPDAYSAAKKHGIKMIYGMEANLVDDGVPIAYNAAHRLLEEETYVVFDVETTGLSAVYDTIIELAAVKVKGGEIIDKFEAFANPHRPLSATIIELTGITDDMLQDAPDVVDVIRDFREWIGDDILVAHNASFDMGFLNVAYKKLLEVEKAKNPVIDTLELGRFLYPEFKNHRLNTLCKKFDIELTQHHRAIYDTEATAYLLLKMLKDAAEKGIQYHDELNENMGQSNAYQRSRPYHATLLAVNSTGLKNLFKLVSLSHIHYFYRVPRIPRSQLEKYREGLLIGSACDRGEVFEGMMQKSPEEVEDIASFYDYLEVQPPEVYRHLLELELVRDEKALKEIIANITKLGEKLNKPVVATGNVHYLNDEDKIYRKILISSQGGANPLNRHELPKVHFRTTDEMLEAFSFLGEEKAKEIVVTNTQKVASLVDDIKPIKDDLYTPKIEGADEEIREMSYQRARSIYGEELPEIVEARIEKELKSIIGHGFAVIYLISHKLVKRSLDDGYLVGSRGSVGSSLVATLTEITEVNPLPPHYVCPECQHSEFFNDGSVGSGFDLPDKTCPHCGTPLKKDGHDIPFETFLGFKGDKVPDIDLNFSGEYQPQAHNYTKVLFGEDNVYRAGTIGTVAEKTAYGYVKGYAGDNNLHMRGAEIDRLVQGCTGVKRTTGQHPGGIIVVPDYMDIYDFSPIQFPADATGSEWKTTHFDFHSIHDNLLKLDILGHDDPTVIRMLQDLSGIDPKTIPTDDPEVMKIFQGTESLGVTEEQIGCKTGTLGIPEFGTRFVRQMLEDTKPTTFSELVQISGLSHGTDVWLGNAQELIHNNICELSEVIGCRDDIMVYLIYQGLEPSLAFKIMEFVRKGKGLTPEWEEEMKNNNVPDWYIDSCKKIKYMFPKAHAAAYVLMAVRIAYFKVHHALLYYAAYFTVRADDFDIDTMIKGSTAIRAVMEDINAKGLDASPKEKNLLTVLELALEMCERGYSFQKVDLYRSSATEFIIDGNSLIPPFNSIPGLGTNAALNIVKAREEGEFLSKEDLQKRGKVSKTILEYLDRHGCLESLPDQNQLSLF

Structure (SMILES): Cn1ccc2cc3c(cc21)CCN3C(=O)Nc1cccnc1
- Potency [1]: inconclusive [falling, partial curve]
- Potency [2]: inconclusive [activator, partial curve]
- Potency [3]: inconclusive [inhibitor, single point]
- Potency [4]: inconclusive [inhibitor, single point]
- Potency [5]: inconclusive [inhibitor, single point]

Structure (SMILES): CNCC[C@H](Oc1ccc(C(F)(F)F)cc1)c1ccccc1
- activity change [1]: inconclusive: 4.04%
- Potency [4]: inconclusive [inhibitor, single point]

Structure (SMILES): O=C(O)c1ccccc1Nc1ccccc1
- Potency [1]: inactive
- Potency [2]: inconclusive [activator, full curve, poor fit]

Structure (SMILES): Cc1ccc(C(=O)Nc2ccc(S(=O)(=O)O)c3cc(S(=O)(=O)O)cc(S(=O)(=O)O)c23)cc1NC(=O)c1cccc(NC(=O)Nc2cccc(C(=O)Nc3cc(C(=O)Nc4ccc(S(=O)(=O)O)c5cc(S(=O)(=O)O)cc(S(=O)(=O)O)c45)ccc3C)c2)c1
- Potency [6]: active: 3.29 µM
- Potency [7]: active: 7.52 µM
- Potency [2]: active: 0.675 µM

Structure (SMILES): COc1ccccc1OCC(O)CN1CCN(CC(=O)Nc2c(C)cccc2C)CC1 (stereo not given)
- activity change [1]: inconclusive: -32.1%
- Potency [8]: inconclusive [inhibitor, full curve, poor fit]
- Potency [9]: inactive

Structure (SMILES): CN=c1nc(-c2ccccc2)n(-c2ccccc2)s1
- Potency [10]: active: 11.2 µM
- Potency [2]: active: 10.7 µM
- Potency [3]: inactive
- Potency [4]: inconclusive [activator, single point]
- Potency [9]: inconclusive [inhibitor, single point]

Structure (SMILES): CN(C)C(N)=NCCC[C@H](N)C(=O)O
- Potency [10]: inactive
- Potency [2]: inactive
- Potency [4]: inactive

Structure (SMILES): COc1cccc(-c2cc(=O)c3ccccc3o2)c1N
- Potency [10]: inconclusive [activator, single point]
- Potency [2]: inconclusive [falling, full curve, poor fit]
- Potency [4]: inconclusive [activator, partial curve]

Structure (SMILES): COc1ccc(Cl)cc1C(=O)NCCc1ccc(S(=O)(=O)NC(=O)NC2CCCCC2)cc1
- Potency [2]: inconclusive [falling, full curve, poor fit]

Structure (SMILES): COc1ccc(NC(=O)/C=C/c2ccc(Cl)cc2)cc1
- Potency [10]: inconclusive [activator, single point]
- Potency [3]: inconclusive [activator, partial curve]
- Potency [4]: inconclusive [activator, partial curve]
- Potency [8]: inactive

Structure (SMILES): NC(=O)C(=O)O
- Potency [2]: inactive

Structure (SMILES): COC(=O)C(N)Cc1ccc(Cl)cc1 (stereo not given)
- Potency [2]: inconclusive [falling, single point]

Structure (SMILES): Cc1oncc1C(=O)Nc1ccc(C(F)(F)F)cc1
- Potency [10]: inconclusive [activator, full curve, poor fit]
- Potency [2]: inactive
- Potency [4]: inconclusive [activator, full curve]

Structure (SMILES): Oc1ccc2ccccc2c1SSc1c(O)ccc2ccccc12
- Potency [6]: inconclusive [falling, single point]
- Potency [11]: inconclusive [inhibitor, single point]

Structure (SMILES): C=CC(N)CCC(=O)O (stereo not given)
- Potency [2]: inconclusive [activator, full curve, poor fit]

Structure (SMILES): O=C(O)c1cccnc1Nc1cccc(C(F)(F)F)c1
- Potency [10]: inconclusive [activator, single point]
- Potency [2]: inconclusive [falling, single point]
- Potency [11]: inactive

Structure (SMILES): NC(=O)c1cn(Cc2c(F)cccc2F)nn1
- Potency [2]: inconclusive [activator, single point]

Structure (SMILES): Nc1c(S(=O)(=O)O)cc(Nc2ccc(Nc3nc(Cl)nc(Nc4ccc(S(=O)(=O)O)cc4)n3)c(S(=O)(=O)O)c2)c2c1C(=O)c1ccccc1C2=O
- Potency [6]: active: 4.65 µM
- Potency [2]: active: 2.39 µM
- Potency [3]: inconclusive [inhibitor, single point]
- Potency [4]: inconclusive [inhibitor, full curve, poor fit]
- Potency [9]: inconclusive [inhibitor, partial curve]

Structure (SMILES): CC(C(=O)O)c1cccc(C(=O)c2ccccc2)c1 (stereo not given)
- Potency [1]: inactive
- Potency [2]: inconclusive [falling, single point]
